{"source": "paper PMC5836133", "note": "The list shows a part of the results. At the low end of the ranking the order means little.", "data": [{"tested_on": "T1, GST-NbGlk1(82-244)", "T1 sequence": "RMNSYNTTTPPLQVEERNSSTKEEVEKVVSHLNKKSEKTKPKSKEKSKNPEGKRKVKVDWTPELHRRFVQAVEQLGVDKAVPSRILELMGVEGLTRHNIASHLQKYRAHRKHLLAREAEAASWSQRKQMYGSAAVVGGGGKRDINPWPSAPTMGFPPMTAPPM", "assay": "protein-binding microarray;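 also: rank-based score ranging −0.5 to +0.5 with E above 0.45 taken as significant binding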", "conditions": "NbGlk1 is a Golden2-like transcription factor of Nicotiana benthamiana; high values mean tight binding; most listed sequences are background and not binding sites; double strand, one strand shown", "units": {"binding signal": "E-score"}, "values": [{"sequence": "CAAATAAA", "binding signal": 0.161}, {"sequence": "AGGCGTAA", "binding signal": -0.039}, {"sequence": "ATCAGCGG", "binding signal": 0.0385}, {"sequence": "AAAGGCCT", "binding signal": -0.286}, {"sequence": "ATAACTCG", "binding signal": 0.0874}, {"sequence": "CAAGGCGG", "binding signal": -0.214}, {"sequence": "AACAGACG", "binding signal": -0.0158}, {"sequence": "ACATGCGA", "binding signal": 0.0558}, {"sequence": "AACGTCGA", "binding signal": 0.0788}, {"sequence": "CAAGCAGG", "binding signal": -0.0729}, {"sequence": "ACGATCTA", "binding signal": 0.252}, {"sequence": "AACCGACA", "binding signal": 0.116}, {"sequence": "ACCCCCAT", "binding signal": -0.143}, {"sequence": "ACCACTAC", "binding signal": -0.147}, {"sequence": "ATGTAAAG", "binding signal": 0.143}, {"sequence": "CAACTTCC", "binding signal": -0.0611}, {"sequence": "AAAATTAG", "binding signal": 0.00982}, {"sequence": "CACTTGAC", "binding signal": -0.0785}, {"sequence": "AACTTTGC", "binding signal": -0.0119}, {"sequence": "AAAAGATG", "binding signal": -0.0604}, {"sequence": "ATGTGATA", "binding signal": 0.231}, {"sequence": "ACGTCCAC", "binding signal": -0.17}, {"sequence": "ACATTGTG", "binding signal": -0.119}, {"sequence": "ATTGTCAG", "binding signal": 0.138}, {"sequence": "AGTGTGTG", "binding signal": -0.163}, {"sequence": "AATATCCC", "binding signal": 0.339}, {"sequence": "AAATTGTA", "binding signal": 0.146}, {"sequence": "ACTGCCAC", "binding signal": -0.0942}, {"sequence": "AACATCTC", "binding signal": -0.0203}, {"sequence": "ACATAAAT", "binding signal": 0.181}, {"sequence": "ACCTGCCG", "binding signal": -0.247}, {"sequence": "ATATTTGA", "binding signal": 0.263}, {"sequence": "AGTCTCTC", "binding signal": -0.216}, {"sequence": "ATCACACC", "binding signal": 0.139}, {"sequence": "AGTCAGAC", "binding signal": -0.127}, {"sequence": "AGACACCG", "binding signal": -0.106}, {"sequence": "AGCAAATC", "binding signal": 0.419}, {"sequence": "ACCCCGAA", "binding signal": -0.0811}, {"sequence": "ATCTATGC", "binding signal": 0.16}, {"sequence": "ACCTTGAT", "binding signal": 0.152}, {"sequence": "AGTGTAGG", "binding signal": -0.157}, {"sequence": "AGCGATGA", "binding signal": -0.0522}, {"sequence": "AACGCGGT", "binding signal": -0.18}, {"sequence": "AGGATCGA", "binding signal": -0.0476}, {"sequence": "ATAAGCAT", "binding signal": 0.11}, {"sequence": "ATTGTGCG", "binding signal": 0.2}, {"sequence": "AGTGATCG", "binding signal": 0.105}, {"sequence": "AACAGGCT", "binding signal": -0.246}, {"sequence": "AGAGTATG", "binding signal": -0.0636}, {"sequence": "ACGGCTAC", "binding signal": -0.205}, {"sequence": "ACAGAAGC", "binding signal": -0.0949}, {"sequence": "ACCGTGGA", "binding signal": -0.142}, {"sequence": "CAACCGGA", "binding signal": -0.0104}, {"sequence": "AGACGAGG", "binding signal": -0.223}, {"sequence": "ACCCGCAT", "binding signal": -0.105}, {"sequence": "ACCTGCCA", "binding signal": -0.249}, {"sequence": "ACCAAACT", "binding signal": 0.00348}, {"sequence": "AAAACAGA", "binding signal": 0.118}, {"sequence": "AAGGGGCA", "binding signal": -0.287}, {"sequence": "AGGGTGCG", "binding signal": -0.0452}, {"sequence": "AAGTCTGC", "binding signal": -0.215}, {"sequence": "ATTGCAGG", "binding signal": 0.103}, {"sequence": "ACTCAGCT", "binding signal": -0.0285}, {"sequence": "ATAACGAG", "binding signal": 0.0886}, {"sequence": "ACGATAGA", "binding signal": 0.0113}, {"sequence": "ATGGCCAA", "binding signal": -0.131}, {"sequence": "ATGTCGCC", "binding signal": -0.0477}, {"sequence": "AATATTAC", "binding signal": 0.235}, {"sequence": "ATGCGCCA", "binding signal": -0.0542}, {"sequence": "CAAACTGA", "binding signal": -0.0751}, {"sequence": "AATCCTTA", "binding signal": 0.337}, {"sequence": "ACCTGAGC", "binding signal": -0.13}, {"sequence": "AAACGTAT", "binding signal": 0.171}, {"sequence": "AAGAGGCG", "binding signal": -0.244}, {"sequence": "ACCATCAC", "binding signal": -0.102}, {"sequence": "AAAAGCAT", "binding signal": -0.1}, {"sequence": "ACTTGGTA", "binding signal": -0.0769}, {"sequence": "ATGAGGTA", "binding signal": 0.0375}, {"sequence": "AAAACCGA", "binding signal": 0.0406}, {"sequence": "AGCATGGA", "binding signal": 0.0209}, {"sequence": "AGAGCCTC", "binding signal": -0.15}, {"sequence": "AAACATGG", "binding signal": 0.003}, {"sequence": "CAACCATA", "binding signal": -0.0717}, {"sequence": "ATGTTAAT", "binding signal": 0.187}, {"sequence": "ATCAACAC", "binding signal": 0.106}, {"sequence": "ATTGTTAC", "binding signal": 0.0849}, {"sequence": "ACGCGGCT", "binding signal": -0.224}, {"sequence": "AAATCCCA", "binding signal": 0.4}, {"sequence": "ACCCATTG", "binding signal": -0.1}, {"sequence": "AATTAAAG", "binding signal": 0.0712}, {"sequence": "ATCGGTCA", "binding signal": -0.0347}, {"sequence": "AATCTAGC", "binding signal": 0.404}, {"sequence": "ACATCGTG", "binding signal": -0.146}, {"sequence": "ACCGAAGA", "binding signal": 0.0235}, {"sequence": "AAATCTTC", "binding signal": 0.446}, {"sequence": "AGGCTACA", "binding signal": -0.202}, {"sequence": "ATCAAATG", "binding signal": 0.011}, {"sequence": "CACGGAAG", "binding signal": -0.202}, {"sequence": "ACATTCTG", "binding signal": 0.0157}, {"sequence": "AATATGTG", "binding signal": 0.197}, {"sequence": "CACACCAC", "binding signal": -0.0743}, {"sequence": "AGCTCCCA", "binding signal": -0.259}, {"sequence": "CACTCTTA", "binding signal": 0.0276}, {"sequence": "AGGAAAAG", "binding signal": -0.16}, {"sequence": "ACAATTGC", "binding signal": -0.035}, {"sequence": "AGGGGTTC", "binding signal": -0.182}, {"sequence": "ATCTGTTG", "binding signal": 0.301}, {"sequence": "AGTATTGC", "binding signal": 0.13}, {"sequence": "AAAGATAG", "binding signal": 0.0907}, {"sequence": "ATTTATAG", "binding signal": 0.186}, {"sequence": "AATGATAC", "binding signal": 0.0977}, {"sequence": "ATATGAGC", "binding signal": 0.0882}, {"sequence": "AACCTATC", "binding signal": -0.0294}, {"sequence": "ACGTAGCG", "binding signal": -0.0933}, {"sequence": "ACGAATTG", "binding signal": 0.0988}, {"sequence": "CAACAGCC", "binding signal": -0.272}, {"sequence": "AAGCCACC", "binding signal": -0.331}, {"sequence": "AATTGAAT", "binding signal": 0.0598}, {"sequence": "AAGCATTA", "binding signal": 0.0744}, {"sequence": "AGGAAAAT", "binding signal": 0.226}, {"sequence": "ACCACGAC", "binding signal": -0.167}, {"sequence": "CAAACTTA", "binding signal": 0.00475}, {"sequence": "AGTAGGCG", "binding signal": -0.0724}, {"sequence": "ACACGCAT", "binding signal": -0.0111}, {"sequence": "AAGTATAC", "binding signal": -0.0451}, {"sequence": "ACCTAACT", "binding signal": -0.0606}, {"sequence": "AGATTAAC", "binding signal": -0.00754}, {"sequence": "CACCGGGA", "binding signal": -0.0972}, {"sequence": "ACAGCACC", "binding signal": -0.18}, {"sequence": "AGACGGAA", "binding signal": -0.117}, {"sequence": "ATACCGTA", "binding signal": 0.221}, {"sequence": "CAGAGCTC", "binding signal": -0.154}, {"sequence": "AGTCTAAC", "binding signal": -0.11}, {"sequence": "AGGATCAC", "binding signal": 0.211}, {"sequence": "CACGGGGC", "binding signal": -0.135}, {"sequence": "ACCACACG", "binding signal": -0.196}, {"sequence": "ACACCTAC", "binding signal": -0.0916}, {"sequence": "ACCGATAC", "binding signal": 0.122}, {"sequence": "ACTCTCTA", "binding signal": -0.0533}, {"sequence": "ACGAATAA", "binding signal": 0.0714}, {"sequence": "AAAGACGA", "binding signal": 0.0808}, {"sequence": "AACGTCCA", "binding signal": -0.231}, {"sequence": "AACGCTCT", "binding signal": -0.148}, {"sequence": "AAAGCCAG", "binding signal": -0.139}, {"sequence": "AAACCGTC", "binding signal": -0.156}, {"sequence": "AGCCTACA", "binding signal": -0.0732}, {"sequence": "ACTGTGGC", "binding signal": -0.0638}, {"sequence": "CAATCCAC", "binding signal": 0.328}, {"sequence": "ATGCCACC", "binding signal": -0.125}, {"sequence": "CAGACATG", "binding signal": -0.0585}, {"sequence": "ACCAAGGC", "binding signal": -0.0872}, {"sequence": "ATGGCTTA", "binding signal": -0.132}, {"sequence": "ACCTATTG", "binding signal": -0.0927}, {"sequence": "AGATGCTA", "binding signal": 0.0809}, {"sequence": "ACCTAACG", "binding signal": -0.115}, {"sequence": "ATCGCTCG", "binding signal": 0.143}, {"sequence": "ACTATACG", "binding signal": -0.0191}, {"sequence": "ACTCGCCG", "binding signal": -0.0925}, {"sequence": "ACACAGGG", "binding signal": -0.103}, {"sequence": "AGCGTTTG", "binding signal": 0.0812}, {"sequence": "ATTTGGCG", "binding signal": 0.117}, {"sequence": "AGAAAGGG", "binding signal": -0.223}, {"sequence": "ATTTTGAA", "binding signal": 0.147}, {"sequence": "CAAAAGAC", "binding signal": -0.106}, {"sequence": "AGATCGCC", "binding signal": 0.353}, {"sequence": "AGGAGATC", "binding signal": 0.382}, {"sequence": "AATGCTTG", "binding signal": -0.119}, {"sequence": "ACGAACTC", "binding signal": -0.153}, {"sequence": "ATGGAATC", "binding signal": 0.385}, {"sequence": "CAGAGCGG", "binding signal": -0.105}, {"sequence": "AATTCAAC", "binding signal": 0.0273}, {"sequence": "AGTGACGC", "binding signal": -0.138}]}]}
